# According to PubChem BioAssay AID588342 (National Center for Advancing Translational Sciences (NCATS), 2011):
# Screen size: about 360,000 compounds; about 25,000 (6.9%) were called active. This list was built around the results that the source calls inconclusive (neither active nor inactive); the mix of calls is not that of the screen. The call rests on the fitted dose curve; in most records, active means well fitted inhibition curve with a large enough effect; inconclusive means small, poorly fitted or top-dose-only effect; inactive means flat fitted curve, though single readings scatter. Potencies beside an inconclusive call are fits to weak or partial responses and may not hold up.
# Target: Luciferin 4-monooxygenase (Photinus pyralis) (UniProt P08659)
# Sequence of UniProt P08659 (P08659 whole entry, looked up): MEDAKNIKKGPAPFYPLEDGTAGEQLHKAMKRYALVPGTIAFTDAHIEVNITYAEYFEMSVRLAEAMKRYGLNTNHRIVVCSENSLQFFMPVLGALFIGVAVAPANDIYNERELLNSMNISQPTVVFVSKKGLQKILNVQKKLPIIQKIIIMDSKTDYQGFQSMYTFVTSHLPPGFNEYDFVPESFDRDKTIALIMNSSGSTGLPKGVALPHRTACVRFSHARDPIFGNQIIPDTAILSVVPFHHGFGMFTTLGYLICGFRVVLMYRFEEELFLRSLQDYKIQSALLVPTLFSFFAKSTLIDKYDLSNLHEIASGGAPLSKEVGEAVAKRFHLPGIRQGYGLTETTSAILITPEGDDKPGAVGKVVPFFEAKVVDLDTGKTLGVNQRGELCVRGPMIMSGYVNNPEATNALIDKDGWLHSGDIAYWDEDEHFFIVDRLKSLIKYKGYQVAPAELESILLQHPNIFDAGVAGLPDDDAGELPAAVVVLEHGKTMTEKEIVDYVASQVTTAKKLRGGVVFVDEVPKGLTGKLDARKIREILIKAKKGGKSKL
# Assay: qHTS profiling assay for firefly luciferase inhibitor/activator using purifed enzyme and Km concentrations of substrates (counterscreen for miR-21 project); further: nearly all actives have a fitted effect of over 55% in size;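 on activity change, negative = inhibition: plate controls were vehicle for no effect and reference inhibitor for full effect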
# Conditions: purified FLuc, luminescence inhibition; series mostly up to 57.5 µM; activity change, negative = inhibition: at the top concentration
# Outline: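 Biochemical qHTS of compounds, final roughly 60 µM downward over six points, against 10 nM purified firefly luciferase using Km concentrations of substrates (10 uM D-luciferin, 10 uM ATP) in Tris acetate pH 7.5 buffer; luminescence output.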
# Potency means the concentration at half of the fitted maximal effect; tags describe the fitted curve by direction and shape.
Structure (SMILES),Potency,"activity change, negative = inhibition"
O=C(O)COc1ccc(/C=C2\SC(=Nc3ccccc3)N(c3ccccc3)C2=O)cc1,"inconclusive: 16.9 µM [inhibitor, partial curve, poor fit]",–
Cc1ccc2[nH]c3c(=O)n(CC(=O)N4CCCC(C)C4)ncc3c2c1 (configuration not stated),–,inactive: -2.48%
CC(=O)N(C)c1ccc(NC(=O)c2ccco2)cc1,"inconclusive: 23.9 µM [inhibitor, partial curve, poor fit]",–
FCCCOc1ccc(-c2nccc(-c3ccccn3)n2)cc1,active: 19 µM,–
CCOc1ccc(/C=N/n2c(C3CCCCC3)n[nH]c2=S)cc1,–,inactive: 1.82%
Cc1nnc(C)n1/N=C/c1ccc(-c2ccccc2)cc1,"inconclusive: 26.9 µM [inhibitor, partial curve]",–
CCOc1ccc(Oc2ccc(Cl)cc2N)cc1,"inconclusive: 21.3 µM [inhibitor, single point]",–
CCn1ccc(C(=O)NC2C(=O)N3C(C(=O)O)=C(C)CSC23)n1 (configuration not stated),"inconclusive: 33.8 µM [inhibitor, partial curve, poor fit]",–
CCOC(=O)N1CCN(C(=O)C(CC)n2nc(C)c3sc4ccccc4c3c2=O)CC1 (configuration not stated),–,inactive: 0.0677%
Cc1ccc(-c2cc(C(F)F)nc(NCC3CCCO3)n2)cc1 (configuration not stated),"inconclusive: 26.9 µM [inhibitor, single point]",–
CC(C)CNC(=O)/C=C/C(=O)O,inactive,–
CCOc1ncccc1C(=O)Nc1cccc(C(=O)Nc2cccc(S(=O)(=O)CCO)c2)c1,"inconclusive: 21.3 µM [inhibitor, partial curve, poor fit]",–
CCCCCCSc1ccc(-c2nc3ccccn3c2NCCCC)cc1,"inconclusive: 26.9 µM [inhibitor, partial curve, poor fit]",–
COc1ccc(C(=O)COC(=O)C(CCSC)NC(=O)COc2ccccc2)c(OC)c1 (configuration not stated),"inconclusive: 19 µM [inhibitor, partial curve, poor fit]",–
Cc1ccc2nc(-c3ccccc3)oc(=O)c2c1,active: 3.79 µM,–
O=C(Nc1ccc2snnc2c1)N1CCCCC1,"inconclusive: 16.9 µM [inhibitor, partial curve]",–
OC1CCN(c2c3c(nc4cc(-c5ccc(Cl)cc5)nn24)CCC3)CC1,"inconclusive: 8.49 µM [inhibitor, partial curve, poor fit]",–
Cn1c(O)c(N=NC(=O)c2ccco2)c2ccccc21,active: 4.78 µM,–
Brc1ccccc1-c1nnc(SCc2nc3ccccc3s2)o1,active: 7.57 µM,–
CCOC(=O)C1(Cc2ccccc2C)CCCN(C(=O)c2ccc(COC)o2)C1 (configuration not stated),active: 21.3 µM,–
O=C(O)CCCCCCC1C(=O)NC(=O)N1CCC(O)C1CCCCC1 (configuration not stated),–,inactive: 2.22%
Cc1ccc(C(=O)O)cc1NC(=S)NC(=O)c1ccc(-c2ccc(Cl)cc2)o1,"inconclusive: 37.9 µM [inhibitor, single point]",–
CCc1ccc(-c2nc(CSCC(=O)NCc3ccc(C)cc3)c(C)o2)cc1,active: 19 µM,–
O=S1(=O)C=C(N2CCOCC2)c2ccccc21,"inconclusive: 26.9 µM [inhibitor, partial curve, poor fit]",–

Structure (SMILES),Potency,"activity change, negative = inhibition"
Cc1ccc(C)c(OCc2cc(C(=O)N(C)Cc3ccccn3)no2)c1,"inconclusive: 37.9 µM [inhibitor, partial curve, poor fit]",–
CCN1CCN(c2ccc(S(=O)(=O)N3CCOCC3)cc2NC(=O)CCC(C)C)CC1,–,inactive: 1.13%
CCCCN=C(C)c1c(O)c2ccccc2oc1=O,active: 19 µM,–
CCOC(=O)N1CCC(NC(=O)c2ccc3c(c2)N(Cc2ccc(Cl)cc2)C(=O)c2ccccc2S3=O)CC1 (configuration not stated),–,inactive: -1.67%
CCOC(=O)c1cnc(SCc2cccc(C)c2)nc1N,"inconclusive: 23.9 µM [inhibitor, partial curve]",–
O=C(O)c1ccc(Nc2ncnc3ccccc23)cc1,"inconclusive: 23.9 µM [inhibitor, partial curve, poor fit]",–
O=C(/C=C/c1ccnc2ccccc12)c1cccs1,active: 0.0675 µM,–
CN1CCN(c2ccc(CNC(=O)c3cc4ccccc4o3)cc2)CC1,"inconclusive: 37.9 µM [inhibitor, partial curve, poor fit]",–
O/N=C/c1ccn(-c2ccc(Br)cc2)c1,active: 23.9 µM,–
CC(C)c1ccc(/C=C(\C#N)c2nc(-c3ccc(O)cc3)cs2)cc1,"inconclusive: 23.9 µM [inhibitor, partial curve]",–
Cc1cc(C)c2nc(NC(=O)CN3C(=O)NC4(CCCC4)C3=O)sc2c1,"inconclusive: 26.9 µM [inhibitor, single point]",–
CCOC(=O)c1cnc(SCC(=O)c2ccccc2)nc1N,active: 2.13 µM,–
CCN(CC(=O)NCc1ccc(Cl)cc1)C(=O)Cc1ccccc1[N+](=O)[O-],"inconclusive: 2.39 µM [inhibitor, partial curve, poor fit]",–
CCOc1cccc(/C=N/NC(=O)c2cc(-c3cccn3C)n[nH]2)c1O,active: 15.1 µM,–
O=c1cc[nH]c2ccc([N+](=O)[O-])cc12,"inconclusive: 33.8 µM [inhibitor, partial curve, poor fit]",–
COc1ccc(C(=O)Nc2ccccc2C(=O)OCc2cc(=O)n3nc(C4CC4)sc3n2)cc1,–,inactive: -8.16%
Cc1nc(NCCc2ccccc2)c2oc3ccccc3c2n1,"inconclusive: 37.9 µM [inhibitor, partial curve, poor fit]",–
Cc1cccc(NC(=O)N(C)Cc2cccs2)c1,"inconclusive: 23.9 µM [inhibitor, partial curve, poor fit]",–
CC(=O)Nc1ccc(C(=O)OCc2ccccc2Br)cc1,"inconclusive: 23.9 µM [inhibitor, single point]",–
CC(C)c1nc2ccc(NC(=O)C34CC5CC(CC(C5)C3)C4)cc2[nH]1,active: 15.1 µM,–
N/C(=N\OC(=O)c1ccc2ccccc2c1)c1cccc([N+](=O)[O-])c1,active: 1.9 µM,–
COc1ccc(C(=O)CC(=O)C(=O)Nc2cc(C)ccc2C)cc1,"inconclusive: 30.1 µM [inhibitor, single point]",–
Nc1ccc(C(=O)c2cccs2)cc1,"inconclusive: 30.1 µM [inhibitor, partial curve, poor fit]",–
